Test results: the supplement of paper PMC12632987
In all, about 4,500 sequences were measured (“median log2 fold change of GCK-ALFA target abundance (FLAG IP / Myc IP barcode read proportion)”: median about 0.078, lowest 2% from about -0.6 on). The list shows a part of the results.

B1: GBRAP_160_4190 (protein)
chain: SEEVEKLIKEIKEIAEEAIELIKGQTYEERLVIVEGAFGQIIMLVMESDVVSDEAEEKIAEVADEAVEYLKKNPNLTEEEIKKLIKEATEKIIEIIKKYS
B2: GBRAP_128_3352 (protein)
chain: LDEARLARVRAMADAMVEADVATAAALMRELAAFINTLDDAEAEAAADIVIEALPRFTVEKLDAIADALRAARPEADPLKANLLADVEVAALNEAEELEE
B3: GBRAP_139_3755 (protein)
chain: SKTEEAIKEIVELVKDPNATLEEIEEKVKEIAKELDEESIKKVLKAAAEAAKSLSVERIEELEERFIKILKEEGRSEDVIDFLEGEFNEAAALSAYREEL
B4: GBRAP_184_5258 (protein)
chain: KVLEETVEFENVEELEEKMKEIYERAKASNADVVIHVEVKELTKEMIEALAEQIKKMKDDGYKGKITVGIDADLTEEMVDYTVKLFDEAGANVVLELPEE
B5: GBRAP_184_5118 (protein)
chain: EVVRESVEGTKAEELIRKAEEVVEKAAAEGKRLLLSVFAEDMSVEEIIRVIERLGELKKAHPEVEIILVVENEQSEEEVDKLVAAADAAGVRLVVALKEE
B6: GBRAP_160_4235 (protein)
chain: SEELEELREDITEEFELLLEVLLESPKSQWEAYARAFAGDVVQLVIENPEVSDEAEERVDEIAEQMVEDLIAAKDASPEEIRKLLEEYAEKIIEAVEEEL
B7: GBRAP_57_6442 (protein)
chain: MSRLEKAEELAEEIRRLLEENAPKEEILKKFEKLLELLSKEGLLDLLLLLDPSARADESKEELIKRLLEIFRRALEEEGKEKALEIVDLALGILEMEESE
B8: GBRAP_128_3159 (protein)
chain: SVEEAVARTRELLERIKAASPEEARRLARELAEYFKTLSPEEREAVTAVVLEALPELSLEKLEILADVLEEERPRDDPYLANLFAEVAVEALNEALELEE
B9: GBRAP_125_3125 (protein)
chain: EEEEALEDLARVLRALGFDDEDVAEAVELARRFSIKGTMYAAMKALGYDELADLVEQLSEEETREVVREVAAWLEAHPDATPEEVKAHLLEVARRAVAAS
B10: GBRAP_96_7094 (protein)
chain: SVEEVKKLIEELAANLDKDPEKAKELAKELSKYSEEEIEEALKDVELTPEQAAKIIDIFEEISLEKAEELALALAEAGSSEVSQVALEKLKEIEEEEEEE
B11: GBRAP_39_5710 (protein)
chain: EEKEELELLASYYEAVAAKKQVDAGISLEEFLEEQKKEIEELAKTDPENKEVYERLLKIMEEGNEVDKLIAAGLADALKAGLPKEEAEKIIDEVIRERKE
B12: GBRAP_160_4440 (protein)
chain: SEKLEAAIKEFEEEAAFVKELADEVSVEQFAKALDAEFGSVALELLEKGYITEETFDKIMAIIDEAVATLLANPDMSLEERKALIDETLEKIKEVIKEGA
B13: GBRAP_52_5979 (protein)
chain: MREEARRVARELLALRLAGDEEAARALLREIAATKSPEFIELVFEELARLAETATPEERDAIVELAIDLEDIALEAGFDEAEVDAGLARVAAAAVAALQA
B14: GBRAP_53_6425 (protein)
chain: MEERIRELEERARELAEKATKADEETLLKLTEQIVEVLAELKAAGAPDERIAELAREIARKLKAAGAPDRALVLLAQGMAALGLEEATAAVAEEAVEELE
B15: GBRAP_53_6405 (protein)
chain: SSEEIEKLKEEILKLTEEATKAGPEKAKELVKQIAEAFKKLKEAGASDEEIEKLAKEVAEKLKKAGADPRLFVELAQAYAELGLEEATAIMAEAAVEDLE
B16: GBRAP_57_6461 (protein)
chain: MSNLEKAIEHFDKAIELAKKGAPEEEILEEVKKALDHLDETLVRDILLLLDPEADADLSKEEAKERILEIIRETLKNEGREAAIEKLKLMKGQVEMASIE
B17: GBRAP_11_2634 (protein)
chain: KKEILKKAAETAAKAVKVLEKLLKEGVDNEELIKELKKLLEELEKLVKKLGNKALENDVKVAKELLEEALADPENAEFYINLLKAQMEIIEADLEELLEE
B18: GBRAP_35_5589 (protein)
chain: EDEELILDTLKDYAEATLWALKEEDDETALAMLKAFLKFAKRAIKDLKNNKEALKEIAKLIKEVIAAVKKYRADNPEFQKLLKELEKLLKEAEKLIKKNE
B19: GBRAP_11_2862 (protein)
chain: KKEKLEELLKLAKELIELLEQLIEEGATNEELLEEARKTLEEALKLAKELGDESLIKLAEIALEELEEAERNPETALQHLQEALAAARVLEGQILLLIDE
B20: GBRAP_52_6118 (protein)
chain: MAAELRARLEEALALLKAGREAEARALLAELAAALDEEGLEILAAELAALAAAAPPEDQDAVWRLAELLAEELEAAGWDPGLADDLLARVAAALHAREQA
B21: GBRAP_52_6091 (protein)
chain: MKEELEKKAEEIYEALRAGDLERVTELLKELVENYSDEEVLETIRLTAELMAKEPADERERMLDIFLEALDRVAEETGKEELMDIAEAETAAIMYEALQR
B22: GBRAP_128_3186 (protein)
chain: SVEEVRRYTREAMERIRESDLETAREIARELFERILTLTLEEAEAAIEVIEEMLPELSKEKLEIVADVAREVRPRLTPEKARLVAGLEVEALNRIEELEE
B23: GBRAP_52_6082 (protein)
chain: AEAAIAATADAITAAIAAGDLDGALALFAAAVKTFTAEEIKALLVRTAEKVAALGDDAHELFVDFLDRAEDIMIAAGISEDDALAIVGDAGAALARAVAA
B24: GBRAP_117_2574 (protein)
chain: HMSKEEVKELVRETVEEVIERLKEAEKLSPEEREKVLKELRERMKEVVRIALEVLSREEIEEIVEEALLSADAKTYFEAETIFLDALEEVEEEREREEEE
B25: GBRAP_35_5557 (protein)
chain: SSDEEILEMMTNTAEDAKLTIDDIPVDTAFEITTKIAEAALEILKKEKENVEGAKKLAEAVLDALDALIKRLKEEGAPQEKIEELEKLKEEIEKELKKIK
B26: GBRAP_52_6191 (protein)
chain: MREELREQVLEIYELVKAGKLEEAKKKAEELVKKLNDEELKLLTEVLAEVAKEAPLEDEDAVFKTAELLAEAMEKAGKDEVLAEDLLAAAAAALYEKELA
B27: GBRAP_26_5497 (protein)
chain: FLEEILEELRREIKEILKDESPELQAAVIATAEDLLLEADEEIEENAEDEEKIKEAIEKAVEEMRKELERFGLSEEKIEKIVEALRRALEKVAERIKEEA
B28: GBRAP_80_6855 (protein)
chain: DAARLAAALAALKEVLPEAAATAEEIVALARALGVPDAVIADYLEAMTELAKVDPELAAELLEETLADLRELAAEGDSEGAVAVLRGYAGEALLEAEELE
B29: GBRAP_83_6941 (protein)
chain: KEKIVVAAPGDKVEEAVEAAIDLHEEEGYEVDLEFIFTDEEAEKVLEEVKKVLEKGIEVDITLINTDSNEEALKKLVEEIKKAAKEAGVKVNVEGYVIEP
B30: GBRAP_80_6800 (protein)
chain: AEEELEEYLEEIEELDPELAERVRRIIEEAKEMGVPEEDLAELARAVAELLKVDPELAREEVEELEEELREEKERGDKENARATVRVAAGEMLLRVEELE
B31: GBRAP_128_3341 (protein)
chain: IDEEKLEEVKKLAEEMIKANKEEAKKLAKKLMELLVTLSLEEVEKAVEIIKKLLPKLSAEHLEILADELRKYRPLFSPEQALLINELEVEALNLAEEKEE
B32: GBRAP_83_6954 (protein)
chain: MITVVASSKPESIRSSVKAAIDLHKEEGKEVEIEILLTRENAPAALAALKELIDAGVEAKITLVTREADREAAEALAAEIKAYAAEKGVNVEVELVVEPE
B33: GBRAP_166_4978 (protein)
chain: KEEEIVEEVKKYIDELAEKMKTADYEEKLELLAEAAEKIKEAIDAGISKEQLRELILYLIKKALEVGLTLSDVEGALTIIADLDEEEIDLLDEAIEEVKK
B34: GBRAP_95_7077 (protein)
chain: DEDLEEIEILADTAIDLYEAGLKEQAAKVMKAAIEAAKENGYKVKDKELMTKLLKYFVELALEYFDAEEVEDALEIAKAIGAPQEIIDKLEEILKKLKEK
B35: GBRAP_53_6401 (protein)
chain: KEEKIKELIEEIEKLTEEATKADDEEREKLVKEIGKKLKELKEAGAPEEEIEKLVEKVAKRLKEAGAKDSHLVELAKKLEELGLEEATAKVGELLVEDLE
B36: GBRAP_184_5067 (protein)
chain: ETFEETLEVNNLEEAKKKMKELEEKIKNHKGNLILHLILPEYDKEIVEEVLKKLSEIKKKGYAKNITLGLDADLTEEEVDYALKLADEAGINLTVALPEE
B37: GBRAP_11_2763 (protein)
chain: KKEKKLEIAELAERLAEILDEILERGVDDEELLEEAREQLEKLTELVEKYGDEAEKKLAEILREEFEKALEDPENREEHLKNARTTARVLSGDFLLEAEE
B38: GBRAP_139_3743 (protein)
chain: AAAEKVRAEARALVAALAEDREAALAALADLLASLDEELRELAAKAIAEALLALDWDTAEAILEELARRLREEHGDEDGAEIVEAERNRTLALIAVREEA
B39: GBRAP_52_6164 (protein)
chain: MEERAEEYANRVLEAVRAGKEEELRKLLKEIAETLSEEEIVLMLEIIAERVPELTPEEAERVVEAALELEDILEEEGKNPELLSYQLARIAAAAYKRLQA
B40: GBRAP_160_4447 (protein)
chain: SEILEKLKKLVDETREEIKELIEGETHENRVVIVDVGFGELLLEFIENEEVSDELEDEVAEIVDETVEYLKENPDLTEEEIKELIDETAEKIKEAIEKHL
B41: GBRAP_39_5696 (protein)
chain: EEEEEAEDTFSYLEAIGAKEQVERGWSLEEVAKRTEELAAKFIAEHPEIAETLKELLKLAKEAGDLAILALYGLLLEAEKGLPLEEIKEKAEKLIAYLKS
B42: GBRAP_11_2639 (protein)
chain: KKELYKKAAELAEKAIKLLEELLKKGVDDEELLKKIRELLEKLEELVKKIPDEALQKEVEIAKELFEEMLKDKENAEKYAKLLLGQLRVLLAELEELIEE
B43: GBRAP_128_3582 (protein)
chain: SVAAARAYTRATLAAIRAAGPAERAALAAALAARLASLSPEERAAAADTIEELLPELSAEDLRALAAALRAADTSNSPELANLAAAVEVEALNKELEEEE

Target: GABARAP, O95166
Sequence (O95166 whole entry, the tested form may be a part): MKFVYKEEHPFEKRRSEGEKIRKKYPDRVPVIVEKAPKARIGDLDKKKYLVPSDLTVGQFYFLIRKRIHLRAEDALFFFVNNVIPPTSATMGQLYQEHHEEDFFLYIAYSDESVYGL
Assay: median log2 fold change of GCK-ALFA target abundance (FLAG IP / Myc IP barcode read proportion) (log2 ratio); each designed protein is fused to an ALFA-tag nanobody in HEK293 cells to bring the named protein to FLAG-tagged glucokinase (GCK); Myc marks an untargeted standard; higher = target protein stabilised (more abundant)
Details: target protein: 3xFLAG-MCP-GCK-ALFA reporter; HEK293 landing pad (RPLP)
Method in brief: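 HEK293 landing-pad cells received a recombined binder library fused to the ALFA nanobody and were induced with 2 μg mL^−1 doxycycline, then transfected with a plasmid encoding a FLAG-tagged target and a Myc-tagged standard. Lysates were collected after 48 h for anti-FLAG and anti-Myc immunoprecipitation, and the circular RNA barcodes were reverse transcribed, amplified and sequenced. Target abundance for each binder is the median log2 ratio of FLAG to Myc barcode read proportions. Barcodes had to reach a proportion of at least 10^−7 in both replicates, each binder needed at least 3 barcodes per replicate, a pseudocount of 10^−6 was applied, and the two replicates were pooled.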

Binder | median log2 fold change
B1 | 0.0673
B2 | -0.0137
B3 | 0.234
B4 | 0.326
B5 | 0.0126
B6 | -0.408
B7 | 0.117
B8 | -0.0412
B9 | -0.247
B10 | 0.204
B11 | 0.227
B12 | -0.372
B13 | -0.14
B14 | 0.223
B15 | 0.372
B16 | 0.373
B17 | -0.2
B18 | -0.0185
B19 | 0.251
B20 | 0.178
B21 | -0.0542
B22 | 0.2

Binder | median log2 fold change
B23 | 0.0364
B24 | 0.0518
B25 | -0.135
B26 | 0.126
B27 | 0.312
B28 | -0.356
B29 | 0.269
B30 | -0.181
B31 | 0.254
B32 | 0.202
B33 | 0.319
B34 | 0.181
B35 | 0.446
B36 | 0.412
B37 | 0.159
B38 | 0.221
B39 | -0.153
B40 | -0.273
B41 | 0.224
B42 | 0.0774
B43 | 0.164
